Reference: PubChem BioAssay AID686970 (National Center for Advancing Translational Sciences (NCATS), 2013)
The campaign covered roughly 360,000 compounds. About 6,000 (1.7%) were called active. Inconclusive means that the source gave no clear call. Such entries were picked first, then a sample of the others. Calls come from the whole dose curve; as a rule, active = well fitted cell-killing curve with a large enough effect; inconclusive = small, poorly fitted or top-dose-only effect, or effect the other way; inactive = flat fitted curve, though single readings scatter. No potency is given beside an inconclusive call; the fits are too rough.

assay: qHTS for induction of synthetic lethality in tumor cells producing 2HG: qHTS for the HT-1080-NT fibrosarcoma cell line; conditions: HT-1080-NT fibrosarcoma viability, CellTiter-Glo ATP luminescence, 48 h; activity, negative = less viability: at 46.1 µM (top of the series) unless noted;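 note: NT is the 2HG producing partner of a matched IDH1 knockdown line; nearly all actives have a fitted effect of over 55% in size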;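 for activity, negative = less viability: 0% = DMSO-treated cells and -100% = media-only wells without cells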
Method in brief: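 HT-1080-NT fibrosarcoma cells (2HG-overproducing), 750 cells/well in RPMI with 5% FBS, dosed after 2 h and incubated 48 h at 37C. CellTiter-Glo luminescence normalized to DMSO and no-cell wells; concentration-response curves fitted and classed.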
Potency is the fitted concentration of half-maximal effect; tags give direction and shape of the fitted curve.

Row | SMILES | Potency | activity, negative = less viability
1 | CC(C)C1S/C(=N/N=C/c2ccco2)NC1=O (stereo not given) | inconclusive [cytotoxic, single point] | 
2 | CCCCSc1nc2ccc(Nc3nc(N4CCOCC4)nc(N4CCOCC4)n3)cc2s1 | inconclusive [cytotoxic, single point] | 
3 | Cc1ccc(NCC(=O)N/N=C\c2ccc([N+](=O)[O-])o2)cc1 | inconclusive [cytotoxic, single point] | 
4 | COc1ccc(-c2coc3c(C)c4oc(=O)c(CCC(=O)O)c(C)c4cc23)cc1 | inconclusive [cytotoxic, single point] | 
5 | CCOC(=O)c1sc2c(c1C)c(=O)n(CCO)c(=O)n2Cc1ccccc1 |  | inconclusive: 6.29%
6 | Cc1cc2[nH]c3c4ccccc4nc(C)c3c2cc1C | active: 14.6 µM | 
7 | Cc1ccc(S(=O)(=O)c2c(N)n(CCC(C)C)c3nc4ccccc4nc23)cc1 | inconclusive [cytotoxic, partial curve] | 
8 | CC1CC(N(C(=O)c2ccccc2Cl)c2ccccc2)c2ccccc2N1 (stereo not given) | active: 23.1 µM | 
9 | Cc1occc1-c1nnc(-c2cc([N+](=O)[O-])cc([N+](=O)[O-])c2)o1 | inactive | 
10 | CN(C)S(=O)(=O)c1ccc(C(=O)N2CCN=C2SCc2cccnc2)cc1 | inactive | 
11 | Cc1ccccc1NC(=O)NCCN1C(=O)C2C3C=CC(C3)C2C1=O (stereo not given) | inactive | 
12 | Cc1ccc(-c2nc3sc(C#N)c(N)n3c(=O)c2C#N)cc1 | inactive | 
13 | COc1ccc(C2/C(=C(/O)c3ccccc3)C(=O)C(=O)N2c2ccccn2)cc1 (stereo not given) | inconclusive [rising, full curve] | 
14 | O=C(NN=Cc1ccccc1O)NN=Cc1ccccc1O | active: 8.2 µM | 
15 | Cc1csc(-c2coc3cc(O)cc(C)c3c2=O)n1 | inconclusive [cytotoxic, single point] | 
16 | COc1ccc(CC(=O)Nc2cccc(-c3nnc(-c4ccccc4)o3)c2)cc1OC | inconclusive [cytotoxic, partial curve] | 
17 | O=C(Nc1ccc(O)cc1)c1cc2n(n1)C(C(F)(F)F)CC(c1ccco1)N2 (stereo not given) | inconclusive [cytotoxic, partial curve] | 
18 | CCCOc1ccc(C(=O)C(CN2CCCC2)c2ccccc2)cc1 (stereo not given) | active: 8.2 µM | 
19 | CCCc1ccc(NC(=O)C2CCN(c3cnccn3)CC2)cc1 | inactive | 
20 | O=C(Nc1nnc(SCc2ccc(F)cc2)s1)c1ccccn1 | inconclusive [cytotoxic, single point] | 
21 | CCCN(CCC)S(=O)(=O)c1ccc(C(=O)Nc2nnc(-c3cccc(OC)c3)o2)cc1 |  | inconclusive: -31% [cytotoxic]
22 | CC(=O)N1N=C(c2ccc(C)cc2)CC1c1ccc2c(c1)OCO2 (stereo not given) | inconclusive [cytotoxic, single point] | 
23 | Cc1cccc(C)c1N1CCN(c2ccc3nnc(C(F)(F)F)n3n2)CC1 | inconclusive [cytotoxic, single point] | 
24 | CCCCCCN1C[C@H](n2cc(C3CC3)nn2)[C@@H](O)C[C@@H]1c1ccccc1 | inconclusive [cytotoxic, single point] | 

Row | SMILES | Potency | activity, negative = less viability
25 | C[C@@H]1ON(C)[C@H]2C[C@H]3c4[nH]c5ccc(-c6ccc7c(c6)OCO7)cc5c4CCN3C[C@@H]12 |  | inconclusive: -31.5% [cytotoxic]
26 | O=C1c2[nH]nc(-c3ccccc3O)c2C(c2ccc(F)cc2)N1Cc1ccco1 (stereo not given) | inconclusive [cytotoxic, single point] | 
27 | O=C(Nc1cccc(S(=O)(=O)c2cccc(NC(=O)c3ccco3)c2)c1)c1ccco1 | inconclusive [cytotoxic, partial curve] | 
28 | COc1ccc2c3n(nc2c1)CCN=C3c1cc(Cl)c(N)c(Cl)c1 | inconclusive [cytotoxic, partial curve, poor fit] | 
29 | COc1ccc(/C=N/Nc2ccccc2)cc1Cn1nc(C)c([N+](=O)[O-])c1C | inconclusive [cytotoxic, partial curve] | 
30 | COc1ccc(Cl)cc1NC(=O)CN(C)CC(=O)NCc1cccs1 | inactive | 
31 | O=S(=O)(c1ccc(-c2csc(Nc3ccc(F)cc3)n2)cc1)N1CCCC1 | inconclusive [cytotoxic, single point] | 
32 | Cc1cccc(C2=NN(c3ccccc3)[C@H](CO)[C@H]2c2ccc(Cl)cc2)c1 | inconclusive [cytotoxic, single point] | 
33 | CCOc1ccc(S(=O)(=O)NC(C)(C)C)cc1-c1nc2c(C(C)(C)C)nn(C)c2c(=O)[nH]1 | inconclusive [cytotoxic, single point] | 
34 | COC(=O)c1ccc(N2C(=O)CC(SCC(=O)Nc3ccc(OC)cc3)C2=O)cc1 (stereo not given) | inactive | 
35 | FC(F)(F)c1ccccc1Cc1c(-c2cccc(Cl)c2)nc2ccc(Br)cn12 | inconclusive [rising, single point] | 
36 | CC(C)(C)c1nc2ccccc2c2nnc(SCC(=O)Nc3nccs3)n12 | inconclusive [cytotoxic, full curve] | 
37 | COc1ccccc1NC(=O)/C(C#N)=C/C=C/c1ccco1 | active: 1.78 µM | 
38 | CCN(CC)S(=O)(=O)c1ccc(N2CCOCC2)c(NC(=O)c2cc(-c3ccccn3)nc3ccccc23)c1 | inconclusive [cytotoxic, single point] | 
39 | Cc1cc(Cl)ccc1OCC(=O)Nc1ccncc1 | inconclusive [cytotoxic, single point] | 
40 | CN(C)Cc1cc2ccccc2c2c1COC2 | inactive | 
41 | O=C(C(=O)N(Cc1ccccc1)Cc1ccccc1)c1c(-c2ccccc2)[nH]c2ccccc12 | inconclusive [cytotoxic, single point] | 
42 | O=C(NCCO)c1cccc(-c2ccc3nncn3c2)c1 | inactive | 
43 | CN1C(=O)/C(=C2/C=Cc3ccccc3N2CCCS(=O)(=O)O)SC1=S | inactive | 
44 | COc1cccc(COC(=O)c2ccc(S(=O)(=O)N3CCC(C)CC3)cc2)c1OC | inactive | 
45 | Cc1ccc(NC(=S)NC(NC(=O)c2ccccc2)C(Cl)(Cl)Cl)c(C)c1 (stereo not given) | inconclusive [cytotoxic, partial curve] | 
46 | CCCCCCSc1ccc([C@@H]2[C@@H]3C(=O)N(CC)C(=O)[C@@H]3[C@]3(C(=O)OC)CCCCN23)cc1OC |  | inconclusive: -30.6% [cytotoxic]
47 | CCCCCCCCN1C(=O)[C@H](CC(=O)N2CCN(C(=O)C3CC3)CC2)C[C@@]2(C(=O)OC)CC(C)(C)CC=C12 | inconclusive [cytotoxic, single point] | 
48 | O=C(CSc1ccc(Br)cc1)NCC(c1cccs1)N1CCOCC1 (stereo not given) | inactive | 

Row | SMILES | Potency | activity, negative = less viability
49 | COc1ccc(C(=O)O)cc1S(=O)(=O)NC(C)C12CC3CC(CC(C3)C1)C2 (stereo not given) | inactive | 
50 | COc1ccc(C(=O)O/N=C/c2ccc(S(=O)(=O)c3ccc(Cl)cc3)nc2)cc1 | inactive | 
51 | CN=c1scc(-c2ccccc2F)n1/N=C/c1ccc[nH]1 | inconclusive [cytotoxic, single point] | 
52 | CC12CC3(C)CC(C)(C1)CC(C(=O)NCc1cccnc1)(C2)C3 | inactive | 
53 | O=C(N/N=C/c1ccccc1O)C1CC(=O)N(c2ccc(Cl)cc2)C1 (stereo not given) | inconclusive [cytotoxic, full curve] | 
54 | OCCN(CCO)CC(O)Cn1c2ccccc2c2ccccc21 (stereo not given) | inactive | 
55 | Fc1ccc(/C=N/Nc2nc(-c3cccnc3)nc3ccccc23)cc1 | inconclusive [cytotoxic, single point] | 
56 | CCOC(=O)c1ccc(S(=O)(=O)Nc2ccc(N3CCOCC3)cc2)cc1 | inactive | 
57 | Cn1c(C(=O)N2CCCC(C(=O)N3CCN(C(=O)c4ccco4)CC3)C2)cc2sccc21 (stereo not given) | inactive | 
58 | COc1ccc(OC)c(NC(=O)CN2C(=O)COc3ccc(C)cc32)c1 | inactive | 
59 | Cc1oc(-c2ccc(Cl)cc2)nc1CSCC(=O)NCCCN1CCOCC1 | inactive | 
60 | Cc1cccc(C(=O)Nc2ccc(NC(=O)c3cccc(C)c3)cc2)c1 | inactive | 
61 | Cc1ccc(NC(=O)/C=C/c2ccc(S(=O)(=O)N3CCOCC3)cc2)cc1S(=O)(=O)N(C)C | inconclusive [cytotoxic, single point] | 
62 | CS(=O)(=O)c1sc(C(=O)NC(=S)Nc2ccc(OC(F)(F)F)cc2)c2c1C=CCC2 | inconclusive [cytotoxic, single point] | 
63 | COc1ccc(CN2CCC(CNS(=O)(=O)c3cccc(C(F)(F)F)c3)CC2)cc1 | inconclusive [cytotoxic, single point] | 
64 | Cc1[nH]c2ccccc2c1C(C[N+](=O)[O-])c1cccc(O)c1 (stereo not given) | inconclusive [cytotoxic, partial curve] | 
65 | CCCc1ccccc1OCCNS(=O)(=O)c1cc2c(cc1C)OCC(=O)N2 | inconclusive [cytotoxic, partial curve, poor fit] | 
66 | O=C(Nc1ccc(N=Nc2ccccc2)c(NC(=O)C2CCCO2)c1)C1CCCO1 (stereo not given) | inconclusive [cytotoxic, single point] | 
67 | Cc1c(C(=O)NCCCN2CCOCC2)sc2nc(-c3ccc(F)cc3)cn12 | inconclusive [cytotoxic, single point] | 
68 | COc1ccc(C(=O)/C=C2/c3ccccc3CC(C)(C)N2C)cc1 | active: 6.31 µM | 
69 | CCC(=O)NC(c1ccc(C)cc1)c1cc([N+](=O)[O-])c2cccnc2c1O (stereo not given) | active: 16.4 µM | 
70 | CC(C)c1ccc(/C=N/NC(=O)c2cc(-c3cccc([N+](=O)[O-])c3)n[nH]2)cc1 | inconclusive [cytotoxic, partial curve] | 
